# Measurements reported in the supplement of paper PMC8728848.
# Some of the results follow.
# B1: IDGF2 (Drosophila melanogaster), Q9V3D4 (protein)
# chain: MKAWIWFTFVACLFAASTEAASNLVCYYDSSSYTREGLGKLLNPDLEIALQFCSHLVYGYAGLRGENLQAYSMNENLDIYKHQFSEVTSLKRKYPHLKVLLSVGGDHDIDPDHPNKYIDLLEGEKVRQIGFIRSAYDLVKTYGFDGLDLAYQFPKNKPRKVHGDLGLAWKSIKKLFTGDFIVDPHAALHKEQFTALVRDVKDSLRADGFLLSLTVLPNVNSTWYFDIPALNGLVDFVNLATFDFLTPARNPEEADYSAPIYHPDGSKDRLAHLNADFQVEYWLSQGFPSNKINLGVATYGNAWKLTKDSGLEGVPVVPETSGPAPEGFQSQKPGLLSYAEICGKLSNPQNQFLKGNESPLRRVSDPTKRFGGIAYRPVDGQITEGIWVSYDDPDSASNKAAYARVKNLGGVALFDLSYDDFRGQCSGDKYPILRAIKYRLHHHHHH
# What was measured:
# Test in all cases: glycan array binding signal (z-score within array); higher = stronger binding
# Conditions in all cases: glycan notation: IUPAC condensed, linker removed
# [1] = target: Man(a1-3)[Man(a1-6)]Man(a1-6)[Man(a1-3)]Man(b1-4)GlcNAc(b1-4)GlcNAc
# Summary of the method: (§1)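 From the Consortium for Functional Glycomics database, 3228 arrays were curated, keeping only those whose protein sequence was available. Binding is given as a within-array Z-score averaged across arrays sharing a protein sequence and across linkers. Negative Z-scores can be read as non-binding.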
# [2] = target: Man(a1-3)[Man(a1-6)]Man(b1-4)GlcNAc(b1-4)GlcNAc
# Summary of the method: as §1
# Man(b1-4)GlcNAc = target: Man(b1-4)GlcNAc
# Summary of the method: as §1
# Neu5Ac(a2-3)Gal = target: Neu5Ac(a2-3)Gal
# Summary of the method: as §1
# [3] = target: Neu5Ac(a2-3)Gal(b1-3)GalNAc
# Summary of the method: as §1
# [4] = target: Neu5Ac(a2-3)Gal(b1-3)GalNAc(b1-3)Gal(a1-4)Gal(b1-4)Glc
# Summary of the method: as §1
# [5] = target: Neu5Ac(a2-3)Gal(b1-3)GalNAc(b1-4)[Neu5Ac(a2-3)]Gal(b1-4)Glc
# Summary of the method: as §1
# [6] = target: Neu5Ac(a2-3)Gal(b1-3)GalNAc6S
# Summary of the method: as §1
# [7] = target: Neu5Ac(a2-3)Gal(b1-3)GlcNAc
# Summary of the method: as §1
# [8] = target: Neu5Ac(a2-3)Gal(b1-3)GlcNAc(b1-3)Gal(b1-3)GlcNAc
# Summary of the method: as §1
# [9] = target: Neu5Ac(a2-3)Gal(b1-3)GlcNAc(b1-3)Gal(b1-4)GlcNAc
# Summary of the method: as §1
# [10] = target: Neu5Ac(a2-3)Gal(b1-3)GlcNAc6S
# Summary of the method: as §1
# [11] = target: Neu5Ac(a2-3)Gal(b1-3)[Fuc(a1-4)]GlcNAc
# Summary of the method: as §1
# [12] = target: Neu5Ac(a2-3)Gal(b1-3)[Fuc(a1-4)]GlcNAc(b1-3)Gal(b1-4)[Fuc(a1-3)]GlcNAc
# Summary of the method: as §1
# [13] = target: Neu5Ac(a2-3)Gal(b1-3)[Neu5Ac(a2-3)Gal(b1-4)]GlcNAc
# Summary of the method: as §1
# [14] = target: Neu5Ac(a2-3)Gal(b1-3)[Neu5Ac(a2-6)]GalNAc
# Summary of the method: as §1
# Neu5Ac(a2-3)Gal(b1-4)Glc = target: Neu5Ac(a2-3)Gal(b1-4)Glc
# Summary of the method: as §1
# [15] = target: Neu5Ac(a2-3)Gal(b1-4)GlcNAc
# Summary of the method: as §1
# [16] = target: Neu5Ac(a2-3)Gal(b1-4)GlcNAc(b1-3)Gal(b1-3)GlcNAc
# Summary of the method: as §1
# [17] = target: Neu5Ac(a2-3)Gal(b1-4)GlcNAc(b1-3)Gal(b1-4)GlcNAc
# Summary of the method: as §1
# [18] = target: Neu5Ac(a2-3)Gal(b1-4)GlcNAc(b1-3)Gal(b1-4)GlcNAc(b1-3)Gal(b1-4)GlcNAc
# Summary of the method: as §1
# [19] = target: Neu5Ac(a2-3)Gal(b1-4)GlcNAc(b1-3)Gal(b1-4)[Fuc(a1-3)]GlcNAc
# Summary of the method: as §1
# [20] = target: Neu5Ac(a2-3)Gal(b1-4)GlcNAc(b1-6)[Gal(b1-3)]GalNAc
# Summary of the method: as §1
# [21] = target: Neu5Ac(a2-3)Gal(b1-4)GlcNAc6S
# Summary of the method: as §1
# [22] = target: Neu5Ac(a2-3)Gal(b1-4)[Fuc(a1-3)]GlcNAc
# Summary of the method: as §1
# [23] = target: Neu5Ac(a2-3)Gal(b1-4)[Fuc(a1-3)]GlcNAc(b1-3)Gal
# Summary of the method: as §1
# [24] = target: Neu5Ac(a2-3)Gal(b1-4)[Fuc(a1-3)]GlcNAc(b1-3)Gal(b1-4)GlcNAc
# Summary of the method: as §1
# [25] = target: Neu5Ac(a2-3)Gal(b1-4)[Fuc(a1-3)]GlcNAc(b1-3)Gal(b1-4)[Fuc(a1-3)]GlcNAc(b1-3)Gal(b1-4)[Fuc(a1-3)]GlcNAc
# Summary of the method: as §1
# [26] = target: Neu5Ac(a2-3)Gal(b1-4)[Fuc(a1-3)]GlcNAc6S
# Summary of the method: as §1
# [27] = target: Neu5Ac(a2-3)Gal6S(b1-4)GlcNAc
# Summary of the method: as §1
# [28] = target: Neu5Ac(a2-3)Gal6S(b1-4)[Fuc(a1-3)]GlcNAc
# Summary of the method: as §1
# Neu5Ac(a2-3)GalNAc = target: Neu5Ac(a2-3)GalNAc
# Summary of the method: as §1
# [29] = target: Neu5Ac(a2-3)GalNAc(b1-4)GlcNAc
# Summary of the method: as §1
# [30] = target: Neu5Ac(a2-3)[GalNAc(b1-4)]Gal(b1-4)Glc
# Summary of the method: as §1
# [31] = target: Neu5Ac(a2-3)[GalNAc(b1-4)]Gal(b1-4)GlcNAc
# Summary of the method: as §1
# [32] = target: Neu5Ac(a2-3)[Neu5Ac(a2-6)]GalNAc
# Summary of the method: as §1
# [33] = target: Neu5Ac(a2-6)Gal(b1-4)GlcNAc
# Summary of the method: as §1
# [34] = target: Neu5Ac(a2-6)Gal(b1-4)GlcNAc(b1-2)Man(a1-3)[Neu5Ac(a2-6)Gal(b1-4)GlcNAc(b1-2)Man(a1-6)]Man(b1-4)GlcNAc(b1-4)GlcNAc
# Summary of the method: as §1
# [35] = target: Neu5Ac(a2-6)Gal(b1-4)GlcNAc(b1-3)Gal(b1-4)GlcNAc
# Summary of the method: as §1
# [36] = target: Neu5Ac(a2-6)Gal(b1-4)GlcNAc(b1-3)Gal(b1-4)[Fuc(a1-3)]GlcNAc(b1-3)Gal(b1-4)[Fuc(a1-3)]GlcNAc
# Summary of the method: as §1
# [37] = target: Neu5Ac(a2-6)Gal(b1-4)GlcNAc6S
# Summary of the method: as §1
# Neu5Ac(a2-6)GalNAc = target: Neu5Ac(a2-6)GalNAc
# Summary of the method: as §1
# [38] = target: Neu5Ac(a2-6)GalNAc(b1-4)GlcNAc
# Summary of the method: as §1
# Neu5Ac(a2-8)Neu5Ac = target: Neu5Ac(a2-8)Neu5Ac
# Summary of the method: as §1
# [39] = target: Neu5Ac(a2-8)Neu5Ac(a2-3)Gal(b1-4)Glc
# Summary of the method: as §1
# [40] = target: Neu5Ac(a2-8)Neu5Ac(a2-3)[GalNAc(b1-4)]Gal(b1-4)Glc
# Summary of the method: as §1
# [41] = target: Neu5Ac(a2-8)Neu5Ac(a2-8)Neu5Ac
# Summary of the method: as §1
# [42] = target: Neu5Ac(a2-8)Neu5Ac(a2-8)Neu5Ac(a2-3)Gal(b1-4)Glc
# Summary of the method: as §1
# [43] = target: Neu5Ac(a2-8)Neu5Ac(a2-8)Neu5Ac(a2-3)[GalNAc(b1-4)]Gal(b1-4)Glc
# Summary of the method: as §1
# [44] = target: Neu5Ac(a2-8)Neu5Ac(a2-8)Neu5Ac(a2-8)Neu5Ac(a2-3)[GalNAc(b1-4)]Gal(b1-4)Glc
# Summary of the method: as §1
# [45] = target: Neu5Ac9Ac(a2-6)Gal(b1-4)GlcNAc
# Summary of the method: as §1
# [46] = target: Neu5Gc(a2-3)Gal(b1-3)GlcNAc
# Summary of the method: as §1
# [47] = target: Neu5Gc(a2-3)Gal(b1-3)[Fuc(a1-4)]GlcNAc
# Summary of the method: as §1
# Neu5Gc(a2-3)Gal(b1-4)Glc = target: Neu5Gc(a2-3)Gal(b1-4)Glc
# Summary of the method: as §1
# [48] = target: Neu5Gc(a2-3)Gal(b1-4)GlcNAc
# Summary of the method: as §1
# [49] = target: Neu5Gc(a2-3)Gal(b1-4)[Fuc(a1-4)]GlcNAc
# Summary of the method: as §1
# [50] = target: Neu5Gc(a2-6)Gal(b1-4)GlcNAc
# Summary of the method: as §1
# Neu5Gc(a2-6)GalNAc = target: Neu5Gc(a2-6)GalNAc
# Summary of the method: as §1
binder,measurement,setting,value
B1,glycan array binding signal (z-score),[1],0.541
same,glycan array binding signal (z-score),[2],-0.284
same,glycan array binding signal (z-score),Man(b1-4)GlcNAc,-0.223
same,glycan array binding signal (z-score),Neu5Ac(a2-3)Gal,0.247
same,glycan array binding signal (z-score),[3],-0.025
same,glycan array binding signal (z-score),[4],-0.258
same,glycan array binding signal (z-score),[5],-0.064
same,glycan array binding signal (z-score),[6],-0.062
same,glycan array binding signal (z-score),[7],-0.337
same,glycan array binding signal (z-score),[8],0.271
same,glycan array binding signal (z-score),[9],0.23
same,glycan array binding signal (z-score),[10],-0.052
same,glycan array binding signal (z-score),[11],-0.462
same,glycan array binding signal (z-score),[12],0.023
same,glycan array binding signal (z-score),[13],-0.113
same,glycan array binding signal (z-score),[14],-0.082
same,glycan array binding signal (z-score),Neu5Ac(a2-3)Gal(b1-4)Glc,-0.174
same,glycan array binding signal (z-score),[15],0.136
same,glycan array binding signal (z-score),[16],-0.415
same,glycan array binding signal (z-score),[17],-0.3
same,glycan array binding signal (z-score),[18],-0.081
same,glycan array binding signal (z-score),[19],0.063
same,glycan array binding signal (z-score),[20],0.619
same,glycan array binding signal (z-score),[21],-0.148
same,glycan array binding signal (z-score),[22],-0.219
same,glycan array binding signal (z-score),[23],0.239
same,glycan array binding signal (z-score),[24],0.148
same,glycan array binding signal (z-score),[25],-0.009
same,glycan array binding signal (z-score),[26],-0.155
same,glycan array binding signal (z-score),[27],-0.073
same,glycan array binding signal (z-score),[28],-0.382
same,glycan array binding signal (z-score),Neu5Ac(a2-3)GalNAc,-0.489
same,glycan array binding signal (z-score),[29],-0.449
same,glycan array binding signal (z-score),[30],-0.132
same,glycan array binding signal (z-score),[31],-0.224
same,glycan array binding signal (z-score),[32],-0.306
same,glycan array binding signal (z-score),[33],0.122
same,glycan array binding signal (z-score),[34],-0.267
same,glycan array binding signal (z-score),[35],0.193
same,glycan array binding signal (z-score),[36],-0.128
same,glycan array binding signal (z-score),[37],-0.019
same,glycan array binding signal (z-score),Neu5Ac(a2-6)GalNAc,0.389
same,glycan array binding signal (z-score),[38],-0.142
same,glycan array binding signal (z-score),Neu5Ac(a2-8)Neu5Ac,-0.092
same,glycan array binding signal (z-score),[39],-0.245
same,glycan array binding signal (z-score),[40],-0.271
same,glycan array binding signal (z-score),[41],-0.044
same,glycan array binding signal (z-score),[42],-0.12
same,glycan array binding signal (z-score),[43],-0.276
same,glycan array binding signal (z-score),[44],0.251
same,glycan array binding signal (z-score),[45],-0.132
same,glycan array binding signal (z-score),[46],-0.378
same,glycan array binding signal (z-score),[47],0.295
same,glycan array binding signal (z-score),Neu5Gc(a2-3)Gal(b1-4)Glc,0.215
same,glycan array binding signal (z-score),[48],0.16
same,glycan array binding signal (z-score),[49],-0.122
same,glycan array binding signal (z-score),[50],0.622
same,glycan array binding signal (z-score),Neu5Gc(a2-6)GalNAc,0.345
